Test [1] has as its target T1, extracellular domain of TNFR-1 (Example 4) (UniProt P19438 30-211, limits assumed).
T1 construct: extracellular domain; also called TNFR1 extracellular domain
T1 sequence (looked up): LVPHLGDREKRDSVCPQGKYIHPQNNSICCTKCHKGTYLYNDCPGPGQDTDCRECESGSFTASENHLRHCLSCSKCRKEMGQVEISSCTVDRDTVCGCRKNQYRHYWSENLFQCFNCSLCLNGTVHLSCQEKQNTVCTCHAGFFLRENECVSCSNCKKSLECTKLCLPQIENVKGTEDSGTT
As to the kind of experiment: SPR (Biacore method). On the technique in general: In SPR one partner is held on a chip, and binding of the other changes the refractive index at the surface.

For test [2], the target named is T2, TNFR1 on the cells of the TNF-dependent bioassays (THP1 cells in Examples 4 and 6) (human, UniProt P19438 30-455).
T2 sequence: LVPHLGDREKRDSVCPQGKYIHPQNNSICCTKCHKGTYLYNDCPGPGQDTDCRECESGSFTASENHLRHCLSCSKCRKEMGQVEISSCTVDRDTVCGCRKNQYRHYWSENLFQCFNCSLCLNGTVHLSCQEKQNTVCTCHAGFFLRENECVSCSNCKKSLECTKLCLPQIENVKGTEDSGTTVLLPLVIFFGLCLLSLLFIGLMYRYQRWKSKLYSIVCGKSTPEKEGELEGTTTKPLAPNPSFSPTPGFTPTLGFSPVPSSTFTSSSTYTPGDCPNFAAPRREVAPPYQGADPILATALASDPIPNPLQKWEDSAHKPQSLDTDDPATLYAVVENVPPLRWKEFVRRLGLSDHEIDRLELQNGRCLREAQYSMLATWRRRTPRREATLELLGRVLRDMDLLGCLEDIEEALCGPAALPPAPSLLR
As to the kind of experiment: cell-based or functional assay.

For another test, the target named is T3, human soluble TNFR2 (human, UniProt P20333 23-257).
T3 construct: also called hTNFR2; TNF receptor type 2
T3 sequence: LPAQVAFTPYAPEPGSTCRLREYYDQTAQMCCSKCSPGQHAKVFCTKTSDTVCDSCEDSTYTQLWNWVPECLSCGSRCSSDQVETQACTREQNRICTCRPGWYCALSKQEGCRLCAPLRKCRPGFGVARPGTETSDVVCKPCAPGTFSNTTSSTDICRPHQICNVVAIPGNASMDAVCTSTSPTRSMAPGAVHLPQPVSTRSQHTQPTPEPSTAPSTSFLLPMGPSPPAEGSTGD
As to the kind of experiment: SPR; VHH-Fc captured by anti-human IgG (Fc) antibody on CM5 sensor chip, TNFR2 as analyte.

A further test concerns the target T4, human soluble TNFR1 (human, UniProt P19438 30-211).
T4 construct: also called hTNFR1; hTNFR-1
T4 sequence: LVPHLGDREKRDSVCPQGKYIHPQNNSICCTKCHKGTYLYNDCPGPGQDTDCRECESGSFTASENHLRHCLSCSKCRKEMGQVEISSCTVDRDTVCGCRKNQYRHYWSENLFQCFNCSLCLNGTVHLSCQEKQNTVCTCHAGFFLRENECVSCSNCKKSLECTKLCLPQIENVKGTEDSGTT
As to the kind of experiment: SPR; VHH-Fc captured by anti-human IgG (Fc) antibody on CM5 sensor chip, human soluble TNFR1 as analyte. From the text:
CM5 sensor chip (Cytiva #BR100530) was coated with an anti-human IgG (Fc) antibody (Cytiva #29234600) to capture the EN1206-BV and EN1208-BV. The human soluble TNFR1 was used as analyte for binding flow.

B1: Vhh-1 (VHH)
VHH: EVQLLESGGGLVQPGGSLRLSCAASGFTFDKYSMGWVRQAPGKGLEWVSQISDTADRTYYAH[about 20 residues cut from this listing]MNSLRAEDTAVYYCAIYTGRWVPFEYWGQGTLVTVSS
notes: Single chain expressed in CHO cells; also called DOM1h-574-208; Dom 1h-574-208
In general, Kd refers to a measure of binding affinity in units of concentration. A higher Kd goes with weaker binding. As for B1, in test [1], the dissociation constant (Kd) came to 0.43 nM. Besides, the “TNF Dependent Bioassay (IC50): IL-8” value in test [2] was determined as 500 nM.

B2: EN-1208-Fc-BV (Fc fusion)
chain: EVQLLESGGGLVQPGGSLRLSCAASGFTFDKYSMGWVRQAPGKGLEWVSQISDTADRTYYAH[about 20 residues cut from this listing]MNSLRAEDTAVYYCAIYTGRWVPFEYWGQGTLVTVSSDKTHTCPPCPAPEAAGGPSVFLFPPKPKDTLYITREPEVTCVVVDVSHEDPEVKFNWYVDGVEVHNAKTKPREEQYNSTYRVVSVLTVLHQDWLNGKEYKCKVSNKALGAPIEKTISKAKGQPREPQVYTLPPSRDELTKNQVSLTCLVKGFYPSDIAVEWESNGQPENNYKTTPPVLDSDGSFFLYSKLTVDKSRWQQGNVFSCSVMHEALHNHYTQKSLSLSPGK
notes: Homodimeric, bivalent; also called EN1208-BV; EN1208-bv
B2: in the test with human soluble TNFR2, the binding result is given as “no binding”. In the test with human soluble TNFR1, the affinity, expressed as Kd, was 224 nM and the “fold poorer affinity (KD) than EN1206-BV” value was ~100 fold.

Source of the values: patent US20260209374A1 (ENOSI THERAPEUTICS, published 2026).
